# According to PubChem BioAssay AID588855 (National Center for Advancing Translational Sciences (NCATS), 2011):
# Values joined by “and” are separate entries in the source; they are usually repeats but may differ in a detail not shown here. Equal values may be shown once. The whole screen tested about 410,000 compounds, of which about 5,000 (1.2%) were called active. The inconclusive results got no clear call from the source; some entries with a clear call stand among them for comparison. Calls come from the whole dose curve; as a rule, active = well fitted inhibition curve with a large enough effect; inconclusive = small, poorly fitted or top-dose-only effect; inactive = no such curve, though single readings can be large or run the other way. Potencies of inconclusive entries are doubtful fits and often do not repeat.
# Experiment: qHTS for Inhibitors of TGF-b; note: nearly all actives have a fitted effect of over 65% in size
# Conditions: HepG2 CAGA-GFP TGF-b/SMAD3 reporter, GFP fluorescence, 18 h, TGF-beta stimulated, 500 pg/mL final; series mostly up to 46.1 µM
# Summary of the method: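 Using HEPG2 CAGA-GFP reporter cells at 1000 cells/well, we pinned test compounds, stimulated with recombinant TGF-beta (500 pg/mL final) and measured total well GFP after 18 h.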
# Potency is the fitted concentration of half-maximal effect; tags give direction and shape of the fitted curve.
row,SMILES,Potency
1,CCOC(=O)N1CCN(Cc2nc(N)nc(Nc3ccc(Oc4ccccc4)cc3)n2)CC1,"inconclusive: 35.5 µM [inhibitor, single point]"
2,COc1ccc(/C=N/NC(=O)c2cc3c(OC)ccc(OC)c3[nH]2)cc1O,"inconclusive: 22.4 µM [inhibitor, partial curve, poor fit]"
3,COc1ccc(NC(=O)C2Cc3c(-c4cccc(C(N)=O)c4)ccnc3O2)cn1 (configuration not stated),inactive
4,CC(OC(=O)CCN=C1NS(=O)(=O)c2ccccc21)C(=O)Nc1ccc(N(C)C)cc1 (configuration not stated),"inconclusive: 35.5 µM [inhibitor, single point]"
5,Cc1ccc(C)c2[nH]c(=O)c(CN(CCN3CCCC3)C(=O)Nc3cccc(Cl)c3)cc12,"inconclusive: 35.5 µM [inhibitor, single point]"
6,O=C(NC(=S)N1CCOCC1)c1cn(-c2ccccc2)nc1-c1ccc(F)cc1,"inconclusive: 1.12 µM [inhibitor, full curve]"
7,Cc1cccc(NC(=O)CSc2nc3nc(C)cc(C)n3n2)c1,"inconclusive: 35.5 µM [inhibitor, single point]"
8,COc1ccccc1N1CCN(S(=O)(=O)CCNC(=O)C(c2ccccc2)c2ccccc2)CC1,"inconclusive: 35.5 µM [inhibitor, single point]"
9,CC(=O)c1c(C)[nH]c(C(=O)OCC(=O)NCc2cccs2)c1C,"inconclusive: 35.5 µM [inhibitor, single point]"
10,CSCc1c(C(=O)N2CCCc3ccccc32)oc2ccccc12,inactive
11,Cc1cc(C(=O)CCl)c(C)n1CCc1ccccc1,"inconclusive: 35.5 µM [inhibitor, single point]"
12,Cn1cccc1C(=O)NC(=O)COC(=O)c1ccc(S(C)(=O)=O)c([N+](=O)[O-])c1,"inconclusive: 22.4 µM [inhibitor, single point] and inconclusive: 14.1 µM [inhibitor, partial curve, poor fit]"
13,C[C@@H]1[C@H](c2ccccc2)OCCS(=O)(=O)N1Cc1ccccc1F,inactive
14,Cc1ccc(-n2cnc3c(sc4nc(N5CCOCC5)c5c(c43)CCCC5)c2=O)cc1,"inconclusive: 1.41 µM [inhibitor, partial curve, poor fit]"
15,Clc1ccc(Nc2nc(-c3ccncc3)cs2)cc1,inactive
16,Cc1cc(N2CCC(C)CC2)nc2ccc(NC(=O)CCC(=O)N3CCN(c4ccccc4F)CC3)cc12,"inconclusive: 3.16 µM [inhibitor, full curve, poor fit]"
17,Cc1ccc(C)c(CNC(=O)CN2C(=O)CSc3ccc(S(=O)(=O)N(C)C)cc32)c1,"inconclusive: 11.2 µM [inhibitor, partial curve, poor fit]"
18,O=C(C[C@@H]1C/C=C\C[C@H](Cc2ccc(F)cc2)C(=O)OC[C@@H]2CCCN2C1=O)N[C@H](CO)Cc1ccccc1,"inconclusive: 22.4 µM [inhibitor, single point]"
19,COc1ccc(N(CC(=O)NCc2ccc3c(c2)OCO3)S(=O)(=O)c2ccc(O)c(C(=O)O)c2)cc1,inactive
20,COc1ccc(C2C=C3CNS(=O)(=O)C3CC2OC(=O)c2ccc(C(F)(F)F)cc2)cc1 (configuration not stated),active: 14.1 µM
21,COc1ccc(OC)c(NC(=O)CC2SC(=Nc3ccccc3)N(CCc3ccccn3)C2=O)c1 (configuration not stated),"inconclusive: 12.6 µM [inhibitor, partial curve, poor fit]"

row,SMILES,Potency
1,O=C(NNC(=O)C1CCN(Cc2ccc(Cl)c(Cl)c2)CC1)c1cccs1,"inconclusive: 2.82 µM [inhibitor, single point]"
2,COC(=O)c1scc(C#N)c1N/N=C(\C#N)S(=O)(=O)c1ccc(Cl)cc1,inactive
3,O=C(C[n+]1cccc(CNC(=O)c2ccc(OC(F)F)cc2)c1)Nc1cccc(C(F)(F)F)c1,"inconclusive: 3.16 µM [inhibitor, partial curve, poor fit]"
4,COc1cccc(-c2cnc(C(O)c3ccc(-c4ccccc4)cc3)[nH]2)c1 (configuration not stated),"inconclusive: 35.5 µM [inhibitor, single point]"
5,Cc1ccc2c(c1)/C(=C/c1ccccc1)C(=O)N2,"inconclusive: 12.6 µM [inhibitor, partial curve, poor fit]"
6,COc1ccc(C(CCN2CCOCC2)c2c(OC)cc(OC)c3c(C)cc(=O)oc23)cc1 (configuration not stated),inactive
7,O=C(NC1CCCCCC1)c1ccc(CS(=O)c2cccc(Cl)c2)o1 (configuration not stated),inactive
8,Cc1ccc(S(=O)(=O)N2CCOC2CNC(=O)C(=O)NCc2ccccn2)cc1 (configuration not stated),"inconclusive: 3.98 µM [inhibitor, single point]"
9,CCC(C)NC(=O)c1cn(CC)c2ccc(S(=O)(=O)N3CCc4ccccc4C3)cc2c1=O (configuration not stated),"inconclusive: 39.8 µM [inhibitor, partial curve, poor fit]"
10,O=C(Cn1cc[n+](CC(=O)c2ccc(Cl)cc2Cl)c1)c1ccc(Cl)cc1Cl,"inconclusive: 35.5 µM [inhibitor, single point]"
11,Cc1ccc(S(=O)(=O)c2c(N)n(Cc3ccco3)c3nc4ccccc4nc23)cc1C,"inconclusive: 35.5 µM [inhibitor, single point]"
12,Cc1ccc(CCNC(=O)c2ccc3c(c2)N(Cc2ccc(F)cc2)CCS3)cc1,inactive
13,Cc1ccc(NC(=O)CN2c3cccc4cccc(c34)S2(=O)=O)cc1,"inconclusive: 35.5 µM [inhibitor, single point]"
14,Cc1cccc(C(=O)N2CCC(=O)N(C(COCc3ccccc3)Cc3ccccc3)CC2)c1 (configuration not stated),inactive
15,COc1ccccc1NC(=O)C(=O)Nc1ccccn1,"inconclusive: 3.98 µM [inhibitor, partial curve, poor fit]"
16,CC(C)C[C@H](NC(=O)c1[nH]cnc1C(=O)Nc1ccc(CNC(=O)OC(C)(C)C)cc1)C(=O)OC(C)(C)C,"inconclusive: 12.6 µM [inhibitor, partial curve, poor fit]"
17,Cc1ccc(C(=O)NNC(=O)c2ccc3ccccc3c2O)cc1,inactive
18,Cc1ccc2c(c1)c(C)c(C)n2CC(O)Cn1nnc2ccccc21 (configuration not stated),"inconclusive: 20 µM [inhibitor, partial curve, poor fit]"
19,CN(CCOc1ccc(Cl)cc1)C(=O)c1cccc(S(=O)(=O)N2CCN(c3ccccc3)CC2)c1,"inconclusive: 14.1 µM [inhibitor, partial curve, poor fit]"
20,CC(NC(=O)CNC(=O)c1sc2ccccc2c1Cl)c1ccc(S(N)(=O)=O)cc1 (configuration not stated),"inconclusive: 35.5 µM [inhibitor, single point]"
21,C=C1CCN([C@H](C(=O)NCc2ccc(Cl)c(Cl)c2)C(C)C)S(=O)(=O)c2ccccc21,"inconclusive: 22.4 µM [inhibitor, single point]"

row,SMILES,Potency
1,COCCNC(=S)N1CCN(c2nc(-c3ccc(Cl)cc3)cs2)CC1,"inconclusive: 35.5 µM [inhibitor, single point]"
2,Cc1ccc(C(=O)N/C(=C\c2ccc(-c3ccc(Cl)cc3)o2)C(=O)NCCCN(C)C)cc1,"inconclusive: 35.5 µM [inhibitor, single point]"
3,S=C(NCc1ccc(Cl)cc1Cl)Nc1ccccc1,"inconclusive: 12.6 µM [inhibitor, single point]"
4,Cc1ccc(NC(=O)C2CCCN2S(=O)(=O)c2ccc3nc(-c4ccccc4)[nH]c3c2)cc1C (configuration not stated),"inconclusive: 17.8 µM [inhibitor, single point]"
5,CC(C)c1cccc(C(C)C)c1NC(=S)Nc1cccc(Cl)c1,"inconclusive: 25.1 µM [inhibitor, single point]"
6,CCCCn1c(CNC(=O)C23CC4CC(CC(C4)C2)C3)nnc1SCC(=O)Nc1ccc(F)cc1,"inconclusive: 11.2 µM [inhibitor, partial curve, poor fit]"
7,CCN(CC)C(=O)Cn1nc(C)c2ccccc2c1=O,inactive
8,O=C(Cc1ccc(Cl)cc1)Nc1ccc(-c2cc3ccccc3oc2=O)c(Cl)c1,"inconclusive: 11.2 µM [inhibitor, partial curve, poor fit]"
9,O=C(NC(Cc1cccc(F)c1)C(=O)O)C1CCCCC1 (configuration not stated),inactive
10,Cc1ccc(NC(=O)CSc2nc3ccccc3n2CC(=O)N(C)C2CCCCC2)cc1C,inactive
11,CCc1c(C)nc2ncnn2c1NCCc1ccccc1,inactive
12,COc1ccccc1-c1nnc(NC(=O)C2=COCCO2)o1,inactive
13,CCc1cc(-c2ccc3c(c2)COc2c4ccccc4nn2-3)on1,"inconclusive: 4.47 µM [inhibitor, full curve, poor fit]"
14,Cc1ccccc1-c1n[nH]nc1C1=CC(=O)C[C@H](c2ccc(F)cc2)C1,"inconclusive: 22.4 µM [inhibitor, single point]"
15,Cc1ccc(-c2csc(NC(=O)c3c(C)noc3C)n2)cc1,"inconclusive: 35.5 µM [inhibitor, single point]"
16,COc1ccc(-n2nc(-c3ccc(C)cc3)c3cnc4cc(F)c(F)cc4c32)cc1,inactive
17,O=S(=O)(c1ccc(F)cc1)c1snnc1-c1ccccc1,"inconclusive: 11.2 µM [inhibitor, partial curve]"
18,Cc1ccc(NC(=O)CC(=O)Nc2ccc(C)cc2C)c(C)c1,"inconclusive: 22.4 µM [inhibitor, single point]"
19,COc1ccc(COC[C@H](C)[C@H](O)[C@@H](C)[C@H]2OC(=O)[C@@H]2C)cc1,"inconclusive: 5.62 µM [inhibitor, single point]"
20,CCCN(CCC)C(=O)c1nn(C)c2c1CSc1ccccc1-2,"inconclusive: 35.5 µM [inhibitor, single point]"
